Measurements: patent US20040127518A1, “Modulation of anxiety through blockade of anandamide hydrolysis” (priority 2002, published 2004)

Molecular target: CB1 receptor (Rattus norvegicus, UniProt P20272)
Chain of UniProt P20272 (P20272 whole entry): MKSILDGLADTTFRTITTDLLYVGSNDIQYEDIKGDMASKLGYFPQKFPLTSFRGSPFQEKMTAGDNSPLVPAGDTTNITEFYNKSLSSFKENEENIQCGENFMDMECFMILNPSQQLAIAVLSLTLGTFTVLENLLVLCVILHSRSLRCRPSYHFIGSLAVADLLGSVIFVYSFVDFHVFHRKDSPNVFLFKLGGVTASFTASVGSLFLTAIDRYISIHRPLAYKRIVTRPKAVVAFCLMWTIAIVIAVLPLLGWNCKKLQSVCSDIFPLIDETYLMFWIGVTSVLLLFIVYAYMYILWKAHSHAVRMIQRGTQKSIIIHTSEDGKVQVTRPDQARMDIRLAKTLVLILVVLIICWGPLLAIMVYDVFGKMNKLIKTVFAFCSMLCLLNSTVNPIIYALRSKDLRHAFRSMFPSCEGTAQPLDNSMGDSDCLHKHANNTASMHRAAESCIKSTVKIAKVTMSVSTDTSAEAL

SMILES	effect on binding of a high-affinity ligand to CB1 (in words)	CB1: maximal concentration of FAAH inhibitor tested (Table 2) [µM]
CCCCNC(=O)Oc1ccc(OCc2ccccc2)cc1 [UCM532, n-Butylcarbamic acid 4-benzyloxyphenyl ester]	no effect	>300
NC(=O)c1cccc(-c2cccc(OC(=O)NC3CCCCC3)c2)c1 [UCM597, cyclohexylcarbamic acid 3′-carbamoylbiphenyl-3-yl ester]	no effect	
